Experimental data reported in PMC9911399, “Two distinct binding modes provide the RNA-binding protein RbFox with extraordinary sequence specificity”.
Substitutions are numbered along the chain they refer to; changes in the protein carry UniProt numbers. Some of the results follow.

T1: RBFOX1 RRM RbFoxmut (Fox-RRM*) (Homo sapiens, UniProt Q9NWB1 109-208, R118D;E147R;N151S;E152T)
T1 sequence: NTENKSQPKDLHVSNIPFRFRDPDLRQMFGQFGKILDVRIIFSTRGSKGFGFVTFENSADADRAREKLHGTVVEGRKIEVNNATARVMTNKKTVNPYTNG

B1: AAACCUC (DNA:RNA)
RNA: GGGAGACCGGAAUUCAGAUUGUCCAAACCUCUUAAAUCCCGUCGUAGCCACCA
DNA 1: CAATCTGAATTCCGGTCTCCC
DNA 2: TGGTGGCTACGACGGGATT
B2: CAGUCUU (DNA:RNA)
RNA: B1 RNA with A25C, A27G, C28U, C31U
DNA 1: CAATCTGAATTCCGGTCTCCC
DNA 2: TGGTGGCTACGACGGGATT
B3: GAGUGGG (DNA:RNA)
RNA: B1 RNA with A25G, A27G, C28U, C29G, U30G, C31G
DNA 1: CAATCTGAATTCCGGTCTCCC
DNA 2: TGGTGGCTACGACGGGATT
B4: UUCUCCG (DNA:RNA)
RNA: B1 RNA with A25U, A26U, A27C, C28U, U30C, C31G
DNA 1: CAATCTGAATTCCGGTCTCCC
DNA 2: TGGTGGCTACGACGGGATT
B5: ACAUAUG (DNA:RNA)
RNA: B1 RNA with A26C, C28U, C29A, C31G
DNA 1: CAATCTGAATTCCGGTCTCCC
DNA 2: TGGTGGCTACGACGGGATT
B6: AGAGCUG (DNA:RNA)
RNA: B1 RNA with A26G, C28G, C31G
DNA 1: CAATCTGAATTCCGGTCTCCC
DNA 2: TGGTGGCTACGACGGGATT
B7: CUCAGUA (DNA:RNA)
RNA: B1 RNA with A25C, A26U, A27C, C28A, C29G, C31A
DNA 1: CAATCTGAATTCCGGTCTCCC
DNA 2: TGGTGGCTACGACGGGATT
B8: UCUGAAC (DNA:RNA)
RNA: B1 RNA with A25U, A26C, A27U, C28G, C29A, U30A
DNA 1: CAATCTGAATTCCGGTCTCCC
DNA 2: TGGTGGCTACGACGGGATT
B9: CGAGUUC (DNA:RNA)
RNA: B1 RNA with A25C, A26G, C28G, C29U
DNA 1: CAATCTGAATTCCGGTCTCCC
DNA 2: TGGTGGCTACGACGGGATT

target: T1, RBFOX1 RRM RbFoxmut (Fox-RRM*); experiment: EMSA; HiTS-Eq, 1 nM pool, 10 min; buffer printed only for the single-RNA assays: 10 mM Tris pH 7.5, 150 mM NaCl, 3.4 mM EDTA, 0.001% NP-40, 30 C; details: tags: His6 N-terminal (pET28a); label: 5' 32P
In short: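 Purified RbFox RRM, wild type or mutant, was incubated for 10 min in 50 µL with 1 nM of a 5′-radiolabelled RNA pool carrying 7 randomized nucleotides, whose flanks were annealed to DNA oligonucleotides, over a series of increasing protein concentrations. Unbound RNA was resolved on 8% native PAGE, cut out, reverse-transcribed, barcoded by PCR and sequenced on an Illumina HiSeq 2500. Relative association constants were derived from changes in read counts for each RNA species versus the control reaction and normalised to the cognate motif.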

Row | Binder | binding signal
1 | B1 | 0.0612 KA relative to UGCAUGU
2 | B2 | 0.067 KA relative to UGCAUGU
3 | B3 | 0.089 KA relative to UGCAUGU
4 | B4 | 0.0802 KA relative to UGCAUGU
5 | B5 | 0.116 KA relative to UGCAUGU
6 | B6 | 0.0983 KA relative to UGCAUGU
7 | B7 | 0.133 KA relative to UGCAUGU
8 | B8 | 0.0583 KA relative to UGCAUGU
9 | B9 | 0.0815 KA relative to UGCAUGU
